± gives the standard deviation of the averaged measurements. The list shows a part of the results.
What follows are sequences tested on PfAP2-I AP2 domain 3 (GST-tagged) (assay: gcPBM binding intensity (ln(normalized median fluorescence intensity)); higher = stronger DNA binding).
Procedure, shortened: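 Probes on an Agilent 4 × 180k array were primer-extended, double-stranded and 36 bp long, taken from intergenic genomic regions, with negative controls added. GST-tagged P. falciparum DNA-binding domains from E. coli, about 25 μg on average, were applied to the array for 1 h in 1× PBS containing 1% milk, 0.2 mg/ml BSA, 0.5% salmon testes DNA and 0.03% Triton X-100. Binding intensity, obtained after Alexa488 anti-GST antibody detection and a 488 nm scan, is the highest Masliner-normalised natural-log median intensity across replicate spots of either probe orientation.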

Sequence | gcPBM binding intensity (ln)
TCTCAAAAAAAAAAAAAAAAAAAAAAATTAAAAAAT [CACACA_negctrl_site1120] | 7.27 ± 0.67
ATAAAGGTTTTCCAAGCATGCCACATAGTGACATAC [TGCATGCA_site193] | 7.59 ± 0.71
CAATATAAAATAAAATGTACTTGTAGTAAAGGGATA [XGTACX_site1452] | 7.93 ± 0.61
GATGAGGACAAACACACACACATAAGTTGATACATA [CACACA_site3424] | 8.15 ± 0.33
AGATAGATACATACACGTACATATATATATACACAT [XGTACX_site4755] | 8.04 ± 0.47
AAGGTTATATAAAAAAGTACGCATAAGATGTTGTTC [XGTACX_site807] | 8.09 ± 0.46
TACTGTATTATAATTATGATTGACGAAATTAAAAAT [GTGCAC_negctrl_site358] | 7.83 ± 0.45
TGAAATTTATAATAGTGTACAAAGAAAAAAAAAAAA [XGTACX_site4965] | 8.14 ± 0.89
ATTAGAAAAAAGATAGCACACACGGCCCAATATATA [CACACA_site2417] | 8.04 ± 0.49
AAAATAACATAAAAGAGTACTAAACCAAGATCAAAT [XGTACX_site7973] | 7.99 ± 0.96
TATATTTATATTCTTACATTTTTTATGTTTTTTTTT [CACACA_negctrl_site1017] | 7.32 ± 0.4
TAAACAGACATATAAACACACATATAAACCGACATA [CACACA_site2478] | 7.73 ± 0.47
GTCATATTATTCTTTTCACACACGCGTTAATAATAA [CACACA_site9302] | 9.02 ± 0.52
TATTATAATATGTAGCGTACATTTTTTCTTTCTTTT [XGTACX_site7831] | 7.61 ± 0.59
TATAAATATATATATACACACACATACACAAAAAAA [CACACA_site9191] | 8.13 ± 0.4
ATATATTATATGTACACACACATATAAGGGATTATA [CACACA_site5] | 8.03 ± 0.13
AAAAATATGAAGACACAATATAGAAATAAAAATATA [XGTACX_negctrl_site244] | 7.41 ± 0.65
TATTACTTGATATATACACACATATAACATAAATGC [CACACA_site7783] | 7.68 ± 0.49
ATACCTAAAAAATATACACACATATTTATAAATATA [CACACA_site7260] | 7.8 ± 0.48
TAGAATAAACCAAGAAGTACTGTTTAATGAAAAGTA [XGTACX_site5712] | 7.79 ± 0.64
TATAAAAATAATATTACACACATGTAAAATGCCCGT [CACACA_site7522] | 7.96 ± 0.79
TGAAAATAATTATAGGTGCATAAACATACGGATCTT | 10.8 ± 0.27
TTTTTTTTGTATTTTTCACACACTCTCTATCTCTCT [CACACA_site8655] | 8.12 ± 0.35
ATATATTAATAATAAATTAAAAGGAGTAACATTTTC [CACACA_negctrl_site320] | 7.62 ± 0.59

Source: the supplement of paper PMC11417369
